# In PubChem BioAssay AID2675 (National Center for Advancing Translational Sciences (NCATS), 2010):
# Among all 280,000 compounds or so, about 100 (0.036%) were called active. The shares of active, inactive and inconclusive entries below differ from those in the screen. Calls follow the shape of the dose curve; as a rule, active = well fitted inhibition curve with a large enough effect in the signal ratio, with a control signal flat (not every such curve was filed as active); inconclusive = small, poorly fitted or top-dose-only effect, or effect the other way, or a change in a side signal; inactive = no such curve, though single readings can be large or run the other way; the % refers to the signal ratio. A potency beside an inconclusive call is a rough fit, not a confirmed value. A note “side channel” means that the fit belongs to a control or component signal, not to the main read-out.
# Target: Muscleblind-like protein 1 (Homo sapiens) (UniProt Q9NR56)
# UniProt Q9NR56, sequence (Q9NR56 whole entry, looked up): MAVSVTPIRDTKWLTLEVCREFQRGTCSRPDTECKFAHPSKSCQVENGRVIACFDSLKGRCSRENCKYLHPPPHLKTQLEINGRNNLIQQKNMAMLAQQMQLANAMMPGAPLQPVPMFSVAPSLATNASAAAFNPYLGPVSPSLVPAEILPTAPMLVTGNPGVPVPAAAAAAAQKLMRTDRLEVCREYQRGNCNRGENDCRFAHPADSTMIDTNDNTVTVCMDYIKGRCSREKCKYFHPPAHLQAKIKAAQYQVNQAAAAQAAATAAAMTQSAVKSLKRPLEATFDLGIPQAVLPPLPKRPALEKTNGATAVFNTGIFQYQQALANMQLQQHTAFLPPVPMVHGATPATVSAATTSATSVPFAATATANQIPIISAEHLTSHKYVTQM
# Assay: qHTS Assay for Inhibitors of MBNL1-poly(CUG) RNA binding
# Conditions: TR-FRET MBNL1-His/biotin-(CUG)12 binding, 665/545 ratio; series mostly up to 57.5 µM
# Procedure, shortened: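 Ratiometric TR-FRET (665 over 545 nm, excitation 340 nm) tracks disruption of MBNL1-His/biotin-(CUG)12 complex after 60 min at room temperature, with compounds at 92 nM to 58 uM final.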
# Potency is read from the fitted curve at half-maximal effect; tags tell the direction and shape of the fitted curve or compound fluorescence and quenching.
row,SMILES,Potency
1,CCN(CC)CCCN(Cc1cc2ccc(C)c(C)c2[nH]c1=O)C(=O)NC1CCCCC1,inactive
2,O=[N+]([O-])c1cc(C(F)(F)F)cc([N+](=O)[O-])c1NCCNC(=S)Nc1cccc(F)c1,"inconclusive: 14.1 µM [quencher, side channel, partial curve]"
3,O=C1NC(=S)S/C1=C\c1ccc2ccccc2c1,inactive
4,COc1ccc(/C=N/NC(=O)c2nnn(-c3nonc3N)c2-c2cccs2)cc1OC,"inconclusive: 3.98 µM [quencher, side channel, partial curve]"
5,CCN(c1cccc(C)c1)S(=O)(=O)c1cc(CN2C(=O)c3cccnc3C2=O)ccc1OC,"inconclusive: 14.1 µM [quencher, partial curve]"
6,O=C(/C=C/c1c(Cl)cccc1Cl)n1cccn1,inactive
7,CCN(CC(=O)Nc1ccc(OC)cc1)C(=O)c1ccc([N+](=O)[O-])cc1,"inconclusive: 15.8 µM [quencher, side channel, partial curve]"
8,Cc1ccc(OCC(=O)N2CCN(c3ccc([N+](=O)[O-])c(N4CCOCC4)c3)CC2)cc1,"inconclusive: 25.1 µM [quencher, side channel, partial curve]"
9,O=C1CCCC2=C1C(c1cccc(O)c1)c1c(ccc3ncccc13)N2 (configuration not stated),"inconclusive: 11.2 µM [quencher, side channel, partial curve]"
10,O=C(CCCN1C(=O)c2cccc3cccc(c23)C1=O)N1CCc2ccccc2C1,"inconclusive: 39.8 µM [quencher, single point]"
11,Cc1cn(C(=O)c2ccccc2)c(=S)n1-c1ccc(Br)cc1,"inconclusive: 8.91 µM [quencher, side channel, single point]"
12,COc1ccc(NC(=S)N2CCN(C(c3ccccc3)c3ccccc3)CC2)cc1OC,"inconclusive: 44.7 µM [fluorescent, side channel, partial curve]"
13,CCc1nnc(NC(=O)C2c3ccccc3Oc3ccccc32)s1,"inconclusive: 8.91 µM [quencher, side channel, single point]"
14,CS(=O)(=O)N1CCc2cc(C(=O)Nc3cccc([N+](=O)[O-])c3)ccc21,"inconclusive: 25.1 µM [quencher, partial curve]"
15,Cn1c2ccccc2c2nn(-c3ccccc3)c(=O)cc21,"inconclusive: 3.55 µM [quencher, side channel, full curve]"
16,CC1CCN(CCOCCOc2ccccc2-c2ccccc2)CC1,inactive
17,CCNc1ccc(C(=O)O)cc1N,inactive
18,O=C(N/N=C/c1cccn1-c1ccccc1)c1ccncc1,"inconclusive: 31.6 µM [quencher, side channel, single point]"
19,CCOC(=O)N1CCN(c2cc(N(C)CCO)c([N+](=O)[O-])c3nonc23)CC1,"inconclusive: 14.1 µM [quencher, side channel, partial curve]"
20,CCCC(c1nnnn1CCC(C)C)N1CCC(C(N)=O)CC1 (configuration not stated),inactive
21,Cc1c(-c2ccccc2)nc2ccccc2c1C(=O)Oc1ccc([N+](=O)[O-])cc1,inactive

row,SMILES,Potency
1,CC1(C(=O)N2CCN(c3ccc([N+](=O)[O-])cc3)CC2)CC1(Cl)Cl (configuration not stated),"inconclusive: 15.8 µM [quencher, partial curve]"
2,CC(=O)NN1C(=O)c2ccc(Oc3ccc([N+](=O)[O-])cc3)cc2C1=O,"inconclusive: 10 µM [quencher, side channel, partial curve]"
3,COC(=O)CN1C(=O)c2cccc3cccc1c23,"inconclusive: 28.2 µM [quencher, side channel, single point]"
4,CCOC(=O)COc1nc(C)cc(C(F)(F)F)c1C#N,"inconclusive: 12.6 µM [quencher, side channel, partial curve]"
5,C=CCn1c(-c2csc(-c3ccccc3)n2)n[nH]c1=S,inactive
6,CCc1nc(N2CCN(C(=O)c3ccccc3)CC2)c(C#N)c2c1COC(C)(C)C2,inactive
7,O=C(O)/C=C/C(=O)Nc1ccc(O)cc1,"inconclusive: 22.4 µM [quencher, side channel, single point]"
8,COc1ccc(-c2cc(C(=O)OC3CCOC3=O)c3ccccc3n2)cc1 (configuration not stated),"inconclusive: 22.4 µM [quencher, single point]"
9,COc1cc(C(=O)NC(=S)NNC(=O)c2ccc3c(c2)OCO3)cc(OC)c1OC,inactive
10,O=C(Nc1ccc(NC(=O)c2cccc([N+](=O)[O-])c2)cc1)c1cccc([N+](=O)[O-])c1,"inconclusive: 20 µM [quencher, side channel, partial curve]"
11,Cc1ccc(Cn2nnc(C(=O)Nc3cc(C)ccc3C)c2N)cc1,"inconclusive: 2.24 µM [quencher, side channel, partial curve]"
12,COC(=O)c1sc(NC(=S)NC(=O)c2ccccc2)nc1C,"inconclusive: 0.316 µM [fluorescent, side channel, partial curve]"
13,COc1cc2cc3c(N)c(C(=O)Nc4sc(C)c(C)c4C#N)sc3nc2cc1OC,"inconclusive: 3.55 µM [quencher, side channel, full curve, poor fit]"
14,O=C(N/N=C/c1cccc(F)c1)c1cc(-c2ccco2)nc2ccccc12,inactive
15,CN=C(c1ccc([N+](=O)[O-])cc1)N1CCCCC1,"inconclusive: 28.2 µM [quencher, side channel, partial curve]"
16,CCC(C)OC(=O)n1ccc(C(=O)Nc2nccs2)n1 (configuration not stated),"inconclusive: 3.55 µM [quencher, side channel, single point]"
17,c1coc(Cn2c(-c3ccco3)nc3ccccc32)c1,inactive
18,COc1cc2[nH]c3c(=O)n(CCN(C(C)C)C(C)C)cnc3c2cc1OC,inactive
19,COc1ccc(/C=C/C(=O)Nc2cc(=O)n(C)c(=O)n2C)cc1,"inconclusive: 14.1 µM [quencher, side channel, partial curve]"
20,CCN(C(=O)c1ccc(Cl)cc1[N+](=O)[O-])c1ccccc1C,"inconclusive: 28.2 µM [quencher, side channel, partial curve]"
21,O=C(/C=C/c1ccccc1[N+](=O)[O-])NCCCN1CCCC1=O,"inconclusive: 14.1 µM [quencher, side channel, partial curve]"

row,SMILES,Potency
1,CC(C(=O)Nc1ccc(O)cc1)c1cccc(C(=O)c2ccccc2)c1 (configuration not stated),inactive
2,CCCCN(CC)CCNC(=O)C1CCN(S(=O)(=O)c2cccc3nsnc23)CC1,"inconclusive: 11.2 µM [quencher, side channel, partial curve]"
3,CCCCC1N2CC3([N+](=O)[O-])CN1CC([N+](=O)[O-])(C2)C3(C)C (configuration not stated),"inconclusive: 15.8 µM [fluorescent, side channel, single point]"
4,COc1ccccc1NC(=O)c1ccc(-n2cccn2)c([N+](=O)[O-])c1,"inconclusive: 8.91 µM [quencher, partial curve]"
5,CC(=O)c1ccccc1NC(=O)Cn1c(=O)cnc2ccccc21,"inconclusive: 20 µM [quencher, side channel, single point]"
6,O=Cc1ccc2noc(-c3ccc(F)cc3)c2c1,"inconclusive: 3.55 µM [quencher, side channel, full curve]"
7,CC(C)=CCC1=C(OCC(=O)O)C(=O)c2ccccc2C1=O,"inconclusive: 10 µM [quencher, side channel, partial curve]"
8,O=c1c(F)cn(C2CCCO2)c(=O)n1Cc1ccc(Cl)cc1 (configuration not stated),"inconclusive: 15.8 µM [quencher, side channel, partial curve]"
9,Cc1ccn2c(CNCC3OCCc4ccccc43)c(C(=O)N3CCCCCC3)nc2c1 (configuration not stated),inactive
10,Cc1ccc(S(=O)(=O)c2ccc([N+](=O)[O-])cn2)cc1,"inconclusive: 12.6 µM [quencher, side channel, partial curve]"
11,CCOC(=O)c1cccc(-c2ccc(C=O)o2)c1,"inconclusive: 31.6 µM [quencher, side channel, partial curve]"
12,COc1ccc(-c2cc(=O)oc3cc(OC(C)C(=O)O)ccc23)cc1 (configuration not stated),"inconclusive: 15.8 µM [quencher, side channel, partial curve]"
13,O=C(CCOc1ccccc1)Nc1cccc([N+](=O)[O-])c1,"inconclusive: 25.1 µM [quencher, side channel, partial curve]"
14,CNC(=O)COC(=O)c1ccccc1C(=O)c1ccc(Cl)c([N+](=O)[O-])c1,"inconclusive: 22.4 µM [quencher, side channel, partial curve]"
15,COc1cc2c(cc1OC)CN(c1ccc(F)cc1[N+](=O)[O-])CC2,"inconclusive: 28.2 µM [quencher, side channel, partial curve]"
16,Cc1c(Cc2ccccc2)c(=O)oc2c(CN(C)C)c(O)c(Cl)cc12,"inconclusive: 14.1 µM [quencher, side channel, partial curve]"
17,COc1cc(/C=N/NC(=O)CSCc2ccc([N+](=O)[O-])cc2)cc(OC)c1OC,"inconclusive: 5.01 µM [quencher, side channel, full curve]"
18,COc1cc(NC(=S)NCCC(c2ccccc2)c2ccccc2)c(OC)cc1Cl,inactive
19,CCCCCC(=O)NC(=S)NNC(=O)c1ccc([N+](=O)[O-])cc1,"inconclusive: 14.1 µM [quencher, side channel, partial curve]"
20,Oc1ccc(N=Nc2n[nH]c(-c3ccc(Cl)cc3)n2)cc1,"inconclusive: 28.2 µM [quencher, side channel, partial curve]"
